Test results from PubChem BioAssay AID504332 (National Center for Advancing Translational Sciences (NCATS), 2011).
Hit rate of the full screen: of about 350,000 compounds, about 31,000 (8.9%) were called active. The shares of active, inactive and inconclusive entries below differ from those in the screen. Calls come from the whole dose curve; as a rule, active = well fitted inhibition curve with a large enough effect; inconclusive = small, poorly fitted or top-dose-only effect; inactive = no such curve, though single readings can be large or run the other way. Potencies of inconclusive entries are doubtful fits and often do not repeat.

The compounds below were run against Histone-lysine N-methyltransferase EHMT2 (Homo sapiens) (UniProt Q96KQ7) (assay: qHTS Assay for Inhibitors of Histone Lysine Methyltransferase G9a). Conditions: G9a H3K9 monomethylation, AlphaScreen, 2 h; activity, negative = inhibition: at 59 µM (top of the series) unless noted.
Sequence of UniProt Q96KQ7 (Q96KQ7 whole entry, looked up): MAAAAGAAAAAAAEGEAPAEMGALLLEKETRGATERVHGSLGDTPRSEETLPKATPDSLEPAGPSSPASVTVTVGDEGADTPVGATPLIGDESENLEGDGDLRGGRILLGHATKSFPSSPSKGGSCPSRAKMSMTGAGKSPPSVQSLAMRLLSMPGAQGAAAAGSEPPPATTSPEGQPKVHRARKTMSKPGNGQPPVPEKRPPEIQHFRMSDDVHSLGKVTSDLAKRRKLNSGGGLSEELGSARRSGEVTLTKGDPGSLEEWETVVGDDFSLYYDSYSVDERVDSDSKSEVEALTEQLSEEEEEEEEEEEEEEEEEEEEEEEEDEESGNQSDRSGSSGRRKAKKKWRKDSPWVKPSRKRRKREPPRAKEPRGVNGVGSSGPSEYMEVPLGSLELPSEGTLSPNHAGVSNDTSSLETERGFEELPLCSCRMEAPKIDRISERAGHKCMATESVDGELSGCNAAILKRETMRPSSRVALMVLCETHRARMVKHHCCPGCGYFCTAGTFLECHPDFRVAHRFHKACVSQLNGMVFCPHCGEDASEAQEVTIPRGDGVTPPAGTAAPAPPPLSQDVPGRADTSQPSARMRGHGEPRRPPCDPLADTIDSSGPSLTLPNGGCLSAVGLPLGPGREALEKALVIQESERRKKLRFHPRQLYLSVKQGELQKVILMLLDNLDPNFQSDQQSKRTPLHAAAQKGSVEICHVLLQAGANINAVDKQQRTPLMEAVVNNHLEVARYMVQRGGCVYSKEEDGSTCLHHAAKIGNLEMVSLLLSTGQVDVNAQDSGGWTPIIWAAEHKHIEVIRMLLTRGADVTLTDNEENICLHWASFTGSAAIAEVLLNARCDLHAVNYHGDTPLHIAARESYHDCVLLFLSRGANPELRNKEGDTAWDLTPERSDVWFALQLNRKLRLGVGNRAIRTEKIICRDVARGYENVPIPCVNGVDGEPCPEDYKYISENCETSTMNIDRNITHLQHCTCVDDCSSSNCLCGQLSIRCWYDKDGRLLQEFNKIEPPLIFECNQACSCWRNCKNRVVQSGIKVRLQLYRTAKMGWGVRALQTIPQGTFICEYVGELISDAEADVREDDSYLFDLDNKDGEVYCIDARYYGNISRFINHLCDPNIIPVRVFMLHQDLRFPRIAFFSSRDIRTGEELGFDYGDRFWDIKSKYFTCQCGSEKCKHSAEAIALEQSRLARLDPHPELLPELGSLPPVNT
Method in brief: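 Signal arises when biotinylated H3K9 peptide, once monomethylated, bridges streptavidin donor and antibody-captured acceptor beads. Enzyme at 20 nM was preincubated 15 min with test compounds; peptide 500 nM and SAM 20 uM then reacted for 2 h.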
% is set by controls: 0 for no effect and ±100 for the full control effect; potency is the fitted concentration of half-maximal effect; tags give direction and shape of the fitted curve.
Note: nearly all actives have a fitted effect of over 75% in size.

SMILES	Potency	activity, negative = inhibition
O=C(Cc1ccc(-c2ccccc2)cc1)NCCS(=O)(=O)N1CCN(c2ccccc2)CC1	inactive	
CCCn1nc(C(=O)NNC(=O)CCOc2ccccc2OCC)c2ccccc2c1=O	inactive	
CCN1CCN(C(=O)C2CCN(Cc3cc(Cl)ccc3O)CC2)CC1	active: 10 µM	
O=C(/C=C/c1cccs1)Nc1ccncc1	inconclusive: 0.708 µM [inhibitor, partial curve, poor fit]	
CCOc1ccc(/C=C/C2=Cc3c(sc(NC(=O)CSc4n[nH]c(N)n4)c3C#N)C(C)(C)C2)cc1		inconclusive: -85.7% [inhibitor]
CC1CCC(NC(=O)CN2C(=O)NC(C)(C)C2=O)CC1 (centres undefined)	inconclusive: 89.1 µM [inhibitor, partial curve, poor fit]	
O=C(NCCCN1CCOCC1)c1ccc2c(c1)N(Cc1cccc(Cl)c1)C(=O)c1ccccc1S2	inactive	
Cc1ccc(Nc2c(-c3ccccn3)nc3cc(C)ccn23)cc1	inconclusive: 39.8 µM [inhibitor, single point]	
COc1ccc(NC(NC(=O)c2cccnc2)C(Cl)(Cl)Cl)cc1 (centres undefined)	inconclusive: 89.1 µM [inhibitor, single point]	
O=C(CCCc1nc2ccccc2s1)NNC(=O)CCN1CCN(Cc2ccccc2)CC1	active: 35.5 µM	
COc1ccccc1NC(=O)C1=C(C)Nc2nc3ccccc3n2C1c1cccc(OC)c1OC (centres undefined)	inactive	
NC(=O)CC(NSc1ccccc1[N+](=O)[O-])C(=O)O (centres undefined)	inconclusive: 3.55 µM [inhibitor, single point]	
COc1ccccc1-n1c(CCC(=O)O)ccc1-c1ccccc1	inactive	
Cc1ccccc1C(=O)Nc1ccc(C(=O)N/N=C/c2ccncc2)cc1	inconclusive: 3.98 µM [inhibitor, partial curve, poor fit]	
CC(C)(C)c1csc(N/N=C/c2ccc(O)cc2)n1	inconclusive: 50.1 µM [inhibitor, partial curve, poor fit]	
CCCCN(CCCNC(=O)c1cc(Nc2ccc(OC)c(OC)c2)nc2ccccc12)c1ccccc1	inactive	
Cc1ccc(/C([O-])=C(/C(=S)NCc2ccc3c(c2)OCO3)[n+]2ccc(N(C)C)cc2)c(C)c1	active: 50.1 µM	
COc1cc(/C=C2/C(=O)NN(c3ccc(Cl)cc3)C2=O)ccc1OC(=O)c1ccco1	inconclusive: 28.2 µM [inhibitor, partial curve, poor fit]	
CC(C)(C)c1cc(NS(=O)(=O)c2ccc(Br)s2)no1	inconclusive: 79.4 µM [inhibitor, single point]	
C=CCn1c(COc2ccc(F)cc2)nnc1SC(C)C(=O)NCC1CCCO1 (centres undefined)	inconclusive: 15.8 µM [inhibitor, single point]	
O=C1Nc2ccccc2C12OCC1(CO2)COC2(OC1)C(=O)Nc1ccccc12 (centres undefined)	inconclusive: 89.1 µM [inhibitor, single point]	
CCOc1ccc(CNCc2c(C(=O)O)c(C)n(Cc3c(F)cccc3Cl)c2C)cc1OC	inactive	

SMILES	Potency	activity, negative = inhibition
COc1ccc(C2=C(Nc3ccc(C)cc3C)c3ccccc3C2=O)cc1	inconclusive: 10 µM [inhibitor, partial curve]	
CC(CCc1ccccc1)NC(=O)Cn1c(=O)nc(-c2ccccc2)c2ccccc21 (centres undefined)	inactive	
COc1cc(OC)c(N(C)S(=O)(=O)c2cccc(C(=O)OCC(=O)c3c[nH]c4ccccc34)c2)cc1Cl	inconclusive: 89.1 µM [inhibitor, single point]	
CCN(CC)CCN(C(=O)c1cc2ccccc2cc1OC)c1nc2ccc(F)cc2s1	active: 39.8 µM	
COc1ccc(N2CCN(C(=O)Cn3c(=O)[nH]c4ccsc4c3=O)CC2)cc1	inconclusive: 3.16 µM [inhibitor, full curve]	
Cc1cc(C)c(S(=O)(=O)NCC(c2ccc(N(C)C)cc2)N2CCOCC2)c(C)c1 (centres undefined)	inconclusive: 31.6 µM [inhibitor, single point]	
COc1ccc(NC(=S)NC(NC(=O)c2ccc(Cl)cc2Cl)C(Cl)(Cl)Cl)c([N+](=O)[O-])c1 (centres undefined)	inconclusive: 5.01 µM [inhibitor, partial curve, poor fit]	
C/C(=N\NC(=O)c1ccc(Cl)c(Cl)c1)c1ccc(Br)s1	inactive	
CCc1cccc(NC(=O)CN(C)S(=O)(=O)c2ccc3c(c2)CCCN3C(C)=O)c1	inactive	
Cc1nn(-c2ccccc2)c(C)c1-c1cc(C(=O)N/N=C/c2ccc(O)cc2)[nH]n1	inconclusive: 35.5 µM [inhibitor, partial curve, poor fit]	
COc1cc([N+](=O)[O-])cc(/C=N\NC(=O)C2COc3ccccc3O2)c1O (centres undefined)	inconclusive: 89.1 µM [inhibitor, partial curve, poor fit]	
COc1ccc(-c2n[nH]c(=S)n2-c2ccc(C)cc2)cc1OC	active: 3.98 µM	
COC(=O)N/N=C/c1cn(CCCOc2ccc(C)cc2)c2ccccc12	inactive	
O=C1CC(C(=O)N2CCOCC2)C2(CCCCC2)O1 (centres undefined)	inconclusive: 5.62 µM [inhibitor, single point]	
O=C(N=C1SCC(=O)N1c1ccccc1Cl)c1ccco1	active: 50.1 µM	
O=C(N/N=C/C(Br)=C/c1ccccc1)C1CC1	inconclusive: 79.4 µM [inhibitor, single point]	
CN(C)/N=C/c1cn(-c2ccccc2)nc1-c1cccnc1	active: 56.2 µM	
CCOc1ccc(OCC)c(S(=O)(=O)NNC(=O)c2c(C)nc3ccccn23)c1	inconclusive: 31.6 µM [inhibitor, single point]	
CCOC(=O)N1CCN(S(=O)(=O)CCNC(=O)c2ccc(OC)cc2)CC1	inconclusive: 50.1 µM [inhibitor, partial curve, poor fit]	
Cc1ccc(Nc2nnc(SC3CCOC3=O)s2)c(C)c1 (centres undefined)	inconclusive: 31.6 µM [inhibitor, single point]	
CCOC(=O)C1(CCc2ccccc2)CCN(Cc2cc(OC)c(OC)cc2OC)CC1	inconclusive: 79.4 µM [inhibitor, single point]	
CCN(C(=O)C(C)Sc1ccc(S(=O)(=O)N2CCOCC2)cn1)c1ccccc1 (centres undefined)	inconclusive: 4.47 µM [inhibitor, single point]	
